The source of these data is PubChem BioAssay AID1745853 (National Center for Advancing Translational Sciences (NCATS), 2022).

This is one part of the list. Further columns of the screen follow, without active or inactive calls.

Common to all, as to experiment: Primary Screen for Target Class Profiling of Small Molecule Inhibitors of Methyltransferases
Experiment [1] concerns the target Glycine N-methyltransferase (Homo sapiens) (UniProt Q14749). The note with it: purified enzyme, MTase-Glo SAH luminescence; measured here: GNMT inhibition; at 40 µM; stronger effect = lower value. The essentials: (§1)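 Each enzyme was reacted with SAM and its substrate, with compounds tested once at 40 uM; SAH formed was read by MTase-Glo luminescence.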
Experiment [2] has as its target Guanidinoacetate N-methyltransferase (Homo sapiens) (UniProt Q14353). The note with it: purified enzyme, MTase-Glo SAH luminescence; measured here: GAMT inhibition; at 40 µM; stronger effect = lower value. Put shortly:
as §1

The target of experiment [3] is Histamine N-methyltransferase (Homo sapiens) (UniProt P50135). Particulars: purified enzyme, MTase-Glo SAH luminescence; measured here: HNMT inhibition; at 40 µM; stronger effect = lower value. Put shortly:
as §1

For experiment [4], the target named is Nicotinamide N-methyltransferase (Homo sapiens) (UniProt P40261). The note with it: purified enzyme, MTase-Glo SAH luminescence; measured here: NNMT inhibition; at 40 µM; stronger effect = lower value. The essentials: as §1
Experiment [5] addresses Phenylethanolamine N-methyltransferase (Homo sapiens) (UniProt P11086). Particulars: purified enzyme, MTase-Glo SAH luminescence; measured here: PNMT inhibition; at 40 µM; stronger effect = lower value. The essentials:
as §1
% is scaled to controls: 0 for no effect and ±100 for the full control effect.

`CSc1ccc(CCN2C(=O)c3ccc(-c4ccccc4)n3CC2(C)C(=O)NC2CCCC2)cc1` (stereo not given): the activity change, negative = inhibition in experiment [1] amounted to 5.74%; in experiment [2], 5.32%; in experiment [3], 9.04%; in experiment [4], 5.52%; in experiment [5], 4.54%.

In the case of `CS(=O)(=O)N[C@H]1CCN2C(=O)c3cc(-c4cccc(C(F)(F)F)c4)ccc3NC(=O)[C@@H]2C1`, the activity change, negative = inhibition is -5.51% in experiment [1]; 0.92% in experiment [2]; -2.98% in experiment [3]; -3.06% in experiment [4]; 4.94% in experiment [5].

Regarding `CCCn1c(=O)c2cc(F)ccc2n2c(SCC(=O)Nc3cccc(Cl)c3)nnc12`, the activity change, negative = inhibition in experiment [1] was 1.83%; in experiment [2], 0.474%; in experiment [3], 11.5%; in experiment [4], -0.104%; in experiment [5] it was 7.28%.

Turning to `Cc1ccc2c(c1)c(C(=O)N[C@H](c1cnn(C)c1)C1CC(O)C1)nn2C` (stereo not given in full), the activity change, negative = inhibition was -1.33% in experiment [1]; -0.032% in experiment [2]; 3.04% in experiment [3]; -4.88% in experiment [4]; -3.35% in experiment [5].

In the case of `O=C(N[C@@H]1CN(C(=O)Cn2c(=O)oc3ccccc32)CC[C@@H]1CO)c1ccccc1`, the activity change, negative = inhibition is -4.76% in experiment [1]; -11.8% in experiment [2]; -3.28% in experiment [3]; -15.5% in experiment [4]; -7.06% in experiment [5].

On to `CC(C)CC(=O)n1cc(C(N)=O)c(=O)cc1C(O)c1ccccc1` (stereo not given), for which the activity change, negative = inhibition in experiment [1] was 1.27%; in experiment [2] it was 3.12%; in experiment [3], 8.06%; in experiment [4], -8.95%; in experiment [5], -2.58%.

Consider `CCCn1c(=O)c2ccc(C(=O)NCC(C)C)cc2n2c(=O)n(CC(=O)c3cc(C)ccc3C)nc12`, for which the activity change, negative = inhibition was 5.51% in experiment [1]; 0.919% in experiment [2]; 10% in experiment [3]; 1.09% in experiment [4]; 4.22% in experiment [5].

With `COC(=O)[C@@H]1CN(C(=O)Nc2ccccc2)CCN1C(C)=O`, the activity change, negative = inhibition in experiment [1] is -6.71%; in experiment [2], -14.4%; in experiment [3], -4.03%; in experiment [4], -7.38%; in experiment [5] it was -3.33%.

In the case of `COc1ccc(-c2cc3n(n2)CC(C)(C(=O)NCc2ccccc2OC)N(c2ccccc2C)C3=O)cc1` (stereo not given), the activity change, negative = inhibition was 1.56% in experiment [1]; 4.38% in experiment [2]; 0.639% in experiment [3]; -0.401% in experiment [4]; -10.4% in experiment [5].

In the case of `Cc1ccc(Cn2nc3n(CCCOC(C)C)c(=O)c4ccccc4n3c2=O)cc1`, the activity change, negative = inhibition in experiment [1] is -6.22%; in experiment [2], -0.509%; in experiment [3], 3.49%; in experiment [4] it was -18.8%; in experiment [5] it was -4.17%.

Regarding `CC1CCN=C(N)S1` (stereo not given), the activity change, negative = inhibition in experiment [1] was 8.35%; in experiment [2] it was 1.12%; in experiment [3] it was -35.8%; in experiment [4], -20.5%; in experiment [5], -2.5%.

For the compound `COc1ccc(N2C(=O)c3cc(C(C)(C)C)nn3CC2(C)C(=O)NC2CCCCCC2)cc1` (stereo not given), the activity change, negative = inhibition in experiment [1] was 0.438%; in experiment [2] it was 0%; in experiment [3], 5.3%; in experiment [4] it was -3.33%; in experiment [5], -4.83%.

`COc1ccccc1CCNC(=O)c1cc2n(n1)CC(C)(C(=O)NCc1ccc(C)cc1)N(C)C2=O` (stereo not given): the activity change, negative = inhibition in experiment [1] is 1.21%; in experiment [2], 1.4%; in experiment [3], -1.33%; in experiment [4], -1.23%; in experiment [5], -0.579%.

Consider `COc1ccc(OC2CN(CC3CC3)C2)cc1`, for which the activity change, negative = inhibition in experiment [1] is 1.24%; in experiment [2], -0.572%; in experiment [3], -0.699%; in experiment [4], -1.01%; in experiment [5], -2.85%.

With `CCOC(=O)Cc1c(-c2ccccc2)c2cc(Br)ccc2[nH]c1=O`, the activity change, negative = inhibition is -7.66% in experiment [1]; 3.19% in experiment [2]; -2.73% in experiment [3]; -8.89% in experiment [4]; -4.11% in experiment [5].

Consider `O=c1cc(-c2ccccc2)c2ccc(OCc3ccc(F)cc3)cc2o1`, for which the activity change, negative = inhibition in experiment [1] was -4.99%; in experiment [2], 2.32%; in experiment [3] it was -4.32%; in experiment [4], -1.3%; in experiment [5], -8.71%.

For `CCCN1C(=O)c2nc3ccccc3n2CC1(C)C(=O)NC1CCCC1` (stereo not given), the activity change, negative = inhibition in experiment [1] was 4.11%; in experiment [2], 4.75%; in experiment [3], 3.42%; in experiment [4], 6.36%; in experiment [5] it was -0.929%.

As for `CCN1C(=O)c2cc(C(=O)NC3CCCCCC3)nn2CC1(C)C(=O)NC1CCCC1` (stereo not given), the activity change, negative = inhibition in experiment [1] is -1.6%; in experiment [2], 3.15%; in experiment [3], -1.32%; in experiment [4] it was -1.55%; in experiment [5] it was -4.08%.

In the case of `CC(C)Cn1c(=O)c2ccc(Cl)cc2n2c(SCC(=O)Nc3ccc4c(c3)OCO4)nnc12`, the activity change, negative = inhibition in experiment [1] is -0.878%; in experiment [2], 2.39%; in experiment [3], 7.93%; in experiment [4], 1.73%; in experiment [5], -1.44%.

Consider `O=C(CCc1nnc2n(Cc3ccccc3Cl)c(=O)c3ccccc3n12)NCCCN1CCCC1=O`, for which the activity change, negative = inhibition in experiment [1] was -0.415%; in experiment [2] it was 0%; in experiment [3], 8.56%; in experiment [4], 4.78%; in experiment [5], 0.334%.

For `CC1CCCN(S(=O)(=O)c2ccc3[nH]c4c(c3c2)CCCC4)C1` (stereo not given), the activity change, negative = inhibition in experiment [1] is -1.42%; in experiment [2], 0.997%; in experiment [3] it was 3.31%; in experiment [4], -5.09%; in experiment [5], -0.113%.

For `COc1ccc(CCN2C(=O)c3ccc(-c4ccco4)n3CC2(C)C(=O)NCCC(C)C)cc1OC` (stereo not given), the activity change, negative = inhibition in experiment [1] is 2.56%; in experiment [2] it was 0.413%; in experiment [3] it was 12.9%; in experiment [4], -15.4%; in experiment [5], 3.9%.

For `CC1CCCCC1NC(=O)C1(C)Cn2c(nc3ccccc32)C(=O)N1Cc1cccnc1` (stereo not given), the activity change, negative = inhibition was 4.76% in experiment [1]; 1.35% in experiment [2]; 9.17% in experiment [3]; 10.4% in experiment [4]; 3.5% in experiment [5].

`O=C(O)CO[C@@H]1COCC[C@H]1NC(=O)c1ccccc1-c1ncn[nH]1`: the activity change, negative = inhibition in experiment [1] is -5.52%; in experiment [2], -9.19%; in experiment [3], -2.71%; in experiment [4] it was -12.5%; in experiment [5], -11.2%.

Turning to `Nc1nc(CCCNC(=O)C2CC(=O)N(Cc3ccccn3)C2)cs1` (stereo not given), the activity change, negative = inhibition in experiment [1] is -7.04%; in experiment [2] it was -8.49%; in experiment [3], -3.34%; in experiment [4] it was -14.1%; in experiment [5], -18.9%.

In the case of `CC(C)OCCCNC(=O)c1cc(C2CC2)nc2onc(C3CCNC3)c12` (stereo not given), the activity change, negative = inhibition in experiment [1] was -5.7%; in experiment [2], -8.87%; in experiment [3] it was -5.75%; in experiment [4] it was -15.1%; in experiment [5] it was -12%.

`Cc1cc(NC(=O)N2CCn3cccc3C2C(C)C)ccc1Br` (stereo not given): the activity change, negative = inhibition in experiment [1] is 12%; in experiment [2], 2.7%; in experiment [3] it was 3.83%; in experiment [4], -1.62%; in experiment [5], 7.32%.

Turning to `O=C(Cn1c(=O)oc2cc(S(=O)(=O)NCc3ccccc3)ccc21)Nc1ccc(F)cc1`, the activity change, negative = inhibition in experiment [1] is -5.11%; in experiment [2], 0%; in experiment [3], 3.79%; in experiment [4], -6.78%; in experiment [5], -3.67%.

With `C/C(=C\C(=O)OCCCCCCCCC(=O)O)C[C@@H]1OC[C@H](C[C@@H]2O[C@H]2[C@@H](C)[C@H](C)O)[C@@H](O)[C@H]1O`, the activity change, negative = inhibition was -0.094% in experiment [1]; -10.2% in experiment [2]; -2.82% in experiment [3]; -18.5% in experiment [4]; -11.1% in experiment [5].

`CCCn1c(=O)c2ccc(Cl)cc2n2c(=O)n(Cc3ccccc3F)nc12`: the activity change, negative = inhibition is -1.52% in experiment [1]; 0.847% in experiment [2]; 4.79% in experiment [3]; -2.16% in experiment [4]; -3.14% in experiment [5].

`CCC(CC)CN1CC2(CCN(C(=O)CCc3nncn3C)CC2)OC1=O`: the activity change, negative = inhibition in experiment [1] was -5.25%; in experiment [2], -0.926%; in experiment [3] it was 1.07%; in experiment [4], 0.387%; in experiment [5], 1.6%.
